{"sequences": {"note": "Sequences of proteins named here, by UniProt entry; tags and fusion partners are left off. A change or cut given only in a name is not applied to a line headed by its entry. Residues count along the entry.", "UniProt Q9P289": "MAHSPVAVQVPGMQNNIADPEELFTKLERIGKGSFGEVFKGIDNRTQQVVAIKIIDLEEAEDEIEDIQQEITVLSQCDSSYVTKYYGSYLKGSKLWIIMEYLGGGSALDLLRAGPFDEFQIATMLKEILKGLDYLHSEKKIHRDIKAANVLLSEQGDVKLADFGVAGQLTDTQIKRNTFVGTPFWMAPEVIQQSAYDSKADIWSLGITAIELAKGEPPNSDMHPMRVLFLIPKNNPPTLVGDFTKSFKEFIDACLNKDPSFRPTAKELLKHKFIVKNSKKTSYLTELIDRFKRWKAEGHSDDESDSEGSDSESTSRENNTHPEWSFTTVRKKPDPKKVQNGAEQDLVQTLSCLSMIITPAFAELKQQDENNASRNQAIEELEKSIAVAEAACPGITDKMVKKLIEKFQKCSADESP", "Flag-MST4 amino acids 1-297 (N-terminal kinase domain)": "residues 1-297 of Q9P289", "Flag-MST4 amino acids 297-416 (C-terminal regulatory domain)": "residues 297-416 of Q9P289", "UniProt Q9HCE7": "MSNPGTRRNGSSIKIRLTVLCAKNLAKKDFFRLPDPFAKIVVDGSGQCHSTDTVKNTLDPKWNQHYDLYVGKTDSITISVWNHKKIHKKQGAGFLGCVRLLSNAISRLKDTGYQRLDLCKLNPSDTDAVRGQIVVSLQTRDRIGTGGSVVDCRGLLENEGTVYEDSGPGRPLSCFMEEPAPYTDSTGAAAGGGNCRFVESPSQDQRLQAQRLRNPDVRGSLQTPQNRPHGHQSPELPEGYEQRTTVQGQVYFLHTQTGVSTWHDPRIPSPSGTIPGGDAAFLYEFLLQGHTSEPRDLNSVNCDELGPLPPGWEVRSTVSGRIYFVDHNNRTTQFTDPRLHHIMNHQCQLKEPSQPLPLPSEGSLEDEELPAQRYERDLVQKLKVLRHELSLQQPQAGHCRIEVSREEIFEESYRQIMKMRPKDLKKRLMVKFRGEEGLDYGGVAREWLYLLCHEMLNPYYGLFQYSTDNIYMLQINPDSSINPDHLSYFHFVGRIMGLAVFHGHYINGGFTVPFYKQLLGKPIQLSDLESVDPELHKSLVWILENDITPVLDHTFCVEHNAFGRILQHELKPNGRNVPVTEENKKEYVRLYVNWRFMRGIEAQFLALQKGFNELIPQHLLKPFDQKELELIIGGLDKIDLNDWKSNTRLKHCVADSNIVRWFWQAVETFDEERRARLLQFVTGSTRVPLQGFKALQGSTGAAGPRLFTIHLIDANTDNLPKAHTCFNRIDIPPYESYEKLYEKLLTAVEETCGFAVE", "UniProt Q7Z434": "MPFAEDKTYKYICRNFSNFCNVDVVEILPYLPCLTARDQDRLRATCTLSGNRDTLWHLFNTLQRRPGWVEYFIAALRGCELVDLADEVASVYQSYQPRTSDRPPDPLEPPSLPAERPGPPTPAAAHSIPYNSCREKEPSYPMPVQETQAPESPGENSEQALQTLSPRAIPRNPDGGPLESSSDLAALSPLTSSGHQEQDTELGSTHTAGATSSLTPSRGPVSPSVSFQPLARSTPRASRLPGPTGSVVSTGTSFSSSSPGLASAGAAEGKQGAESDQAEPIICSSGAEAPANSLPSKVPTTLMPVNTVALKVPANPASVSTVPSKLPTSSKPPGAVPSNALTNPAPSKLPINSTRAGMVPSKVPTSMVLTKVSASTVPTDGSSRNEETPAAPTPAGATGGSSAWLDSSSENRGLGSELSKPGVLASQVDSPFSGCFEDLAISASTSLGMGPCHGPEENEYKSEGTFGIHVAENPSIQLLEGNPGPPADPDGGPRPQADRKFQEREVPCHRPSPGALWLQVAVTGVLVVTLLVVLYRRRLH", "HA-MAVS 360-540": "residues 360-540 of Q7Z434"}, "source": "paper PMC9274187", "key": {"Flag-IKKε (human)": {"target": "T1, Flag-IKKε (human) (UniProt Q14164)", "T1 sequence": "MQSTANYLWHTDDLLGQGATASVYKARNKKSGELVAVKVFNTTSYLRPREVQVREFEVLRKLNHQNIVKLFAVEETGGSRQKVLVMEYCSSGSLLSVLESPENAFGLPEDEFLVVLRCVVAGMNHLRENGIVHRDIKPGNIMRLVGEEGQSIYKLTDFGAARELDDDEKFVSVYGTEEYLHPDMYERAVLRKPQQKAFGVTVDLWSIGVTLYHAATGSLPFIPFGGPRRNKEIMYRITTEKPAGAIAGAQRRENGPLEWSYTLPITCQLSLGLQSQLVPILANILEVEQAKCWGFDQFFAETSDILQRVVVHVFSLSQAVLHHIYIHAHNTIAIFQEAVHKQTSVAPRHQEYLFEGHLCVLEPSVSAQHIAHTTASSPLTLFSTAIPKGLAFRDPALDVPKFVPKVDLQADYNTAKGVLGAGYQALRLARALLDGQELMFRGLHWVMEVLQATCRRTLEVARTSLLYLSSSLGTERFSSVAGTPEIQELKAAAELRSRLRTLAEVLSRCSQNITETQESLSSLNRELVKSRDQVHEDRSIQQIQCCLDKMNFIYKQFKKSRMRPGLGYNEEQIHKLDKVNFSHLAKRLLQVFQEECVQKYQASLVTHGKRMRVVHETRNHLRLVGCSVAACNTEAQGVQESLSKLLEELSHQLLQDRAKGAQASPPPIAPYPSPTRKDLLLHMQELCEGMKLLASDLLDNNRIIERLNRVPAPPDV", "test": "co-IP; competition format: 293T cells co-transfected for 24 h with a Flag-tagged bait, a tagged partner and a third protein (increasing amounts of Myc-MST4; or Myc-TRAF3 and Myc-MST4 together); anti-Flag beads; immunoblot"}, "[1]": {"target": "Flag-MST4 amino acids 297-416 (C-terminal regulatory domain) (human) (UniProt Q9P289)", "test": "co-IP; 293T cells co-transfected with both tagged proteins for 24 h; lysis in 1% NP40, 150 mM NaCl, 10 mM Tris-HCl pH 8.0, 10% glycerol, 1 mM EDTA; anti-Flag sepharose at 4 °C overnight; five washes with 300 mM NaCl; immunoblot"}, "[2]": {"target": "Flag-MST4 amino acids 1-297 (N-terminal kinase domain) (human) (UniProt Q9P289)", "test": "co-IP; 293T cells co-transfected with both tagged proteins for 24 h; lysis in 1% NP40, 150 mM NaCl, 10 mM Tris-HCl pH 8.0, 10% glycerol, 1 mM EDTA; anti-Flag sepharose at 4 °C overnight; five washes with 300 mM NaCl; immunoblot"}, "[3]": {"target": "Flag-MST4, full length (human) (UniProt Q9P289)", "test": "co-IP; 293T cells co-transfected with both tagged proteins for 24 h; lysis in 1% NP40, 150 mM NaCl, 10 mM Tris-HCl pH 8.0, 10% glycerol, 1 mM EDTA; anti-Flag sepharose at 4 °C overnight; five washes with 300 mM NaCl; immunoblot"}, "[4]": {"target": "endogenous MST4 (human (endogenous in HEK293T)) (UniProt Q9P289)", "test": "co-IP; endogenous proteins; 293T cells (for TRAF3: 293T-sh-Control and 293T-sh-MST4) infected with SeV for 8 h; immunoprecipitation with anti-MST4 or anti-TRAF3 antibody or control rabbit IgG, Protein A/G PLUS-Agarose; immunoblot"}, "[5]": {"target": "Flag-Smurf1 (E3 ubiquitin ligase Smurf1) (UniProt Q9HCE7)", "test": "co-IP; 293T cells transfected with Flag-Smurf1 with or without Myc-MST4 for 24 h; anti-Flag beads; MAVS (no MAVS plasmid named) detected by immunoblot"}, "Myc-MAVS": {"target": "Myc-MAVS (UniProt Q7Z434)", "test": "co-IP; competition format: 293T cells co-transfected for 24 h with a Flag-tagged bait, a tagged partner and a third protein (increasing amounts of Myc-MST4; or Myc-TRAF3 and Myc-MST4 together); anti-Flag beads; immunoblot"}, "HA-MAVS 360-540": {"target": "HA-MAVS 360-540 (UniProt Q7Z434)", "test": "co-IP; competition format: 293T cells co-transfected for 24 h with a Flag-tagged bait, a tagged partner and a third protein (increasing amounts of Myc-MST4; or Myc-TRAF3 and Myc-MST4 together); anti-Flag beads; immunoblot"}, "[6]": {"target": "Flag-MAVS (mitochondrial antiviral signaling protein) (UniProt Q7Z434)", "test": "co-IP; competition format: 293T cells co-transfected for 24 h with a Flag-tagged bait, a tagged partner and a third protein (increasing amounts of Myc-MST4; or Myc-TRAF3 and Myc-MST4 together); anti-Flag beads; immunoblot"}, "[7]": {"target": "T2, Flag-RIG-I (retinoic acid-inducible gene I) (UniProt O95786)", "T2 sequence": "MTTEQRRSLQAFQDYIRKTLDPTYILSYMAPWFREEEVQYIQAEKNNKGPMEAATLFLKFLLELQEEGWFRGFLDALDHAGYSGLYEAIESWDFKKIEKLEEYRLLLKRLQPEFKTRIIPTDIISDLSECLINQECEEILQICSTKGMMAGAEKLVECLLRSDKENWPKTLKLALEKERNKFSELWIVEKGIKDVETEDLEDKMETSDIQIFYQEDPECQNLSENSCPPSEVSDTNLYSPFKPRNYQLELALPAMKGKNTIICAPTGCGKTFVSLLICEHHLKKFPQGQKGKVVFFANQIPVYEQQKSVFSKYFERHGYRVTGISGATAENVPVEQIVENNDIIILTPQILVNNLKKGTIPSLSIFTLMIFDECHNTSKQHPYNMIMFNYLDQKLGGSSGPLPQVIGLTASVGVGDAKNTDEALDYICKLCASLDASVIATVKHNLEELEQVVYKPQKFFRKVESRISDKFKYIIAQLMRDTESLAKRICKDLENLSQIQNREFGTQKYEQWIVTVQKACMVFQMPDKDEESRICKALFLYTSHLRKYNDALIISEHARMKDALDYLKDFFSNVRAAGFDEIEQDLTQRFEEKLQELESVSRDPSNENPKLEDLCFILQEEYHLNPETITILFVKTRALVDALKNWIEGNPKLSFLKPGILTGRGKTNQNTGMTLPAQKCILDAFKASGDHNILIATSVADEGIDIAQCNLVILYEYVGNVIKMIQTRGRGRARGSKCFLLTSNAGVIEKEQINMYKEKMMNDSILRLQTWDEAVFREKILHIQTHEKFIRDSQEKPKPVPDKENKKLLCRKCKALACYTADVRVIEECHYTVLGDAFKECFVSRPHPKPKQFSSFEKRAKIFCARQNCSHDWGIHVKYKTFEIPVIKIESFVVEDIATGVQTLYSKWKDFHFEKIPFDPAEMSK", "test": "co-IP; 293T cells co-transfected with both tagged proteins for 24 h; lysis in 1% NP40, 150 mM NaCl, 10 mM Tris-HCl pH 8.0, 10% glycerol, 1 mM EDTA; anti-Flag sepharose at 4 °C overnight; five washes with 300 mM NaCl; immunoblot"}, "[8]": {"target": "Flag-MAVS (mitochondrial antiviral signaling protein) (UniProt Q7Z434)", "test": "co-IP; 293T cells co-transfected with both tagged proteins for 24 h; lysis in 1% NP40, 150 mM NaCl, 10 mM Tris-HCl pH 8.0, 10% glycerol, 1 mM EDTA; anti-Flag sepharose at 4 °C overnight; five washes with 300 mM NaCl; immunoblot"}, "[9]": {"target": "T3, Flag-MDA5 (melanoma differentiation-associated gene 5) (UniProt Q9BYX4)", "T3 sequence": "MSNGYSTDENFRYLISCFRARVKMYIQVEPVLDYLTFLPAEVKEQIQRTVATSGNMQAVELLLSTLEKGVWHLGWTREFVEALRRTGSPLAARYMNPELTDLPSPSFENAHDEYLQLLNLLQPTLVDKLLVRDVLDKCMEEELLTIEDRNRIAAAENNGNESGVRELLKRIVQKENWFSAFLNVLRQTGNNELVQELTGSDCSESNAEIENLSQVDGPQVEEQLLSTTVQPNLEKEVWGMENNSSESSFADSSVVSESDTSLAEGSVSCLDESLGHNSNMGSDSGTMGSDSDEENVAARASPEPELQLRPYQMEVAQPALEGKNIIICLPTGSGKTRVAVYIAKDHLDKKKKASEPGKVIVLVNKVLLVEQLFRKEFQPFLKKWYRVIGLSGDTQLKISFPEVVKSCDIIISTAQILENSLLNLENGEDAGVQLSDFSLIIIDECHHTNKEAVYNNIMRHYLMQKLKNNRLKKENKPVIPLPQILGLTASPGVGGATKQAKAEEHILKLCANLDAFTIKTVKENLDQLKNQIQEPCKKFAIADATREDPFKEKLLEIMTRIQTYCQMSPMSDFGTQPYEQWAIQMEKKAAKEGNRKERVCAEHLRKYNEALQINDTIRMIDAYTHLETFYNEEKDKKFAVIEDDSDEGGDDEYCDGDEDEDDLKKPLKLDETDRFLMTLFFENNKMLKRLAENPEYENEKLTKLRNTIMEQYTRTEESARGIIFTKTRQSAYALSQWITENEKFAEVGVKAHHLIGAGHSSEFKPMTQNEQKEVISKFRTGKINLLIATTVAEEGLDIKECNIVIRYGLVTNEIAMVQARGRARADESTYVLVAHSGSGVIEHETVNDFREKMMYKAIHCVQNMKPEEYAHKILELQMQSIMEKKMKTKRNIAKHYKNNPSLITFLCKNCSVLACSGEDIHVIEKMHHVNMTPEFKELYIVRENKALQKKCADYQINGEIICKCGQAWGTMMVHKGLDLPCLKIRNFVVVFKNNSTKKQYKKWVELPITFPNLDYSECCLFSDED", "test": "co-IP; 293T cells co-transfected with both tagged proteins for 24 h; lysis in 1% NP40, 150 mM NaCl, 10 mM Tris-HCl pH 8.0, 10% glycerol, 1 mM EDTA; anti-Flag sepharose at 4 °C overnight; five washes with 300 mM NaCl; immunoblot"}}, "note": "These are yes or no findings as the source states them, for the method shown. In cells and extracts the contact can be indirect. Some results given as binding are weak or reduced against the parent protein; the word gives no strength. For part of these data: Sequences can lack the tags named with a protein."}
{"substance": "Myc-MAVS (from UniProt Q7Z434 1-540)", "values": [{"measurement": "binding", "setting": "Flag-IKKε (human)", "result": "binds"}, {"measurement": "binding", "setting": "[1]", "result": "no binding"}, {"measurement": "binding", "setting": "[2]", "result": "binds"}]}
{"substance": "HA-MAVS, full length (from UniProt Q7Z434 1-540)", "values": [{"measurement": "binding", "setting": "[3]", "result": "binds"}]}
{"substance": "endogenous MAVS (from UniProt Q7Z434 1-540)", "values": [{"measurement": "binding", "setting": "[4]", "result": "binds"}, {"measurement": "binding", "setting": "[5]", "result": "binds"}]}
{"substance": "Myc-MST4 (mammalian sterile 20-like kinase 4) (from UniProt Q9P289 1-416) (enzyme)", "values": [{"measurement": "binding", "setting": "Myc-MAVS", "result": "binds"}, {"measurement": "binding", "setting": "HA-MAVS 360-540", "result": "binds"}, {"measurement": "binding", "setting": "[6]", "result": "binds"}, {"measurement": "binding", "setting": "[7]", "result": "no binding"}, {"measurement": "binding", "setting": "[8]", "result": "binds"}, {"measurement": "binding", "setting": "[9]", "result": "no binding"}]}
